According to the supplement of paper PMC8728848:
The other results are listed elsewhere or left out.

What was measured:
Assay in all cases: glycan array binding signal (z-score within array); higher = stronger binding
Conditions in all cases: glycan notation: IUPAC condensed, linker removed
[1] = target: GlcNAc(b1-4)GlcNAc(b1-4)GlcNAc(b1-4)GlcNAc(b1-4)GlcNAc
In short: (§1)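 Negative Z-scores can be read as non-binding. The Z-score is calculated within each array and then averaged across arrays of one protein sequence at different concentrations or buffers and across linkers. Arrays, 3228 in all, were curated from the Consortium for Functional Glycomics database and kept only where the protein sequence was available.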

[2] = target: GlcNAc(b1-4)GlcNAc(b1-4)GlcNAc(b1-4)GlcNAc(b1-4)GlcNAc(b1-4)GlcNAc
In short: as §1

[3] = target: GlcNAc(b1-4)[GlcNAc(b1-6)]GalNAc
In short: as §1

[4] = target: GlcNAc(b1-6)Gal(b1-4)GlcNAc
In short: as §1

GlcNAc(b1-6)GalNAc = target: GlcNAc(b1-6)GalNAc
In short: as §1

[5] = target: GlcNAc6S(b1-3)Gal(b1-4)GlcNAc
In short: as §1

Kdn(a2-3)Gal(b1-3)GalNAc = target: Kdn(a2-3)Gal(b1-3)GalNAc
In short: as §1

Kdn(a2-3)Gal(b1-3)GlcNAc = target: Kdn(a2-3)Gal(b1-3)GlcNAc
In short: as §1

Kdn(a2-3)Gal(b1-4)Glc = target: Kdn(a2-3)Gal(b1-4)Glc
In short: as §1

Kdn(a2-3)Gal(b1-4)GlcNAc = target: Kdn(a2-3)Gal(b1-4)GlcNAc
In short: as §1

[6] = target: Kdn(a2-3)Gal(b1-4)[Fuc(a1-3)]GlcNAc
In short: as §1

Kdn(a2-6)Gal(b1-4)GlcNAc = target: Kdn(a2-6)Gal(b1-4)GlcNAc
In short: as §1

[7] = target: Man(a1-2)Man(a1-2)Man(a1-3)Man
In short: as §1

[8] = target: Man(a1-2)Man(a1-2)Man(a1-6)[Man(a1-3)]Man
In short: as §1

Man(a1-2)Man(a1-3)Man = target: Man(a1-2)Man(a1-3)Man
In short: as §1

[9] = target: Man(a1-2)Man(a1-3)[Man(a1-2)Man(a1-6)]Man
In short: as §1

[10] = target: Man(a1-2)Man(a1-3)[Man(a1-2)Man(a1-6)]Man(a1-6)[Man(a1-2)Man(a1-2)Man(a1-3)]Man
In short: as §1

[11] = target: Man(a1-2)Man(a1-3)[Man(a1-2)Man(a1-6)]Man(a1-6)[Man(a1-2)Man(a1-2)Man(a1-3)]Man(b1-4)GlcNAc(b1-4)GlcNAc
In short: as §1

[12] = target: Man(a1-2)Man(a1-3)[Man(a1-6)]Man(a1-6)[Man(a1-2)Man(a1-3)]Man(b1-4)GlcNAc(b1-4)GlcNAc
In short: as §1

[13] = target: Man(a1-2)Man(a1-6)[Man(a1-3)]Man(a1-6)[Man(a1-2)Man(a1-2)Man(a1-3)]Man
In short: as §1

[14] = target: Man(a1-2)Man(a1-6)[Man(a1-3)]Man(a1-6)[Man(a1-2)Man(a1-2)Man(a1-3)]Man(b1-4)GlcNAc(b1-4)GlcNAc
In short: as §1

Man(a1-3)[Man(a1-6)]Man = target: Man(a1-3)[Man(a1-6)]Man
In short: as §1

[15] = target: Man(a1-3)[Man(a1-6)]Man(a1-6)[Man(a1-2)Man(a1-3)]Man(b1-4)GlcNAc(b1-4)GlcNAc
In short: as §1

[16] = target: Man(a1-3)[Man(a1-6)]Man(a1-6)[Man(a1-3)]Man
In short: as §1

[17] = target: Man(a1-3)[Man(a1-6)]Man(a1-6)[Man(a1-3)]Man(b1-4)GlcNAc(b1-4)GlcNAc
In short: as §1

[18] = target: Man(a1-3)[Man(a1-6)]Man(b1-4)GlcNAc(b1-4)GlcNAc
In short: as §1

[19] = target: Man(a1-3)[Man(a1-6)]Man(b1-4)GlcNAc(b1-4)[Fuc(a1-6)]GlcNAc
In short: as §1

Man(a1-6)Man = target: Man(a1-6)Man
In short: as §1

Man(b1-4)GlcNAc = target: Man(b1-4)GlcNAc
In short: as §1

MurNAc(b1-4)GlcNAc = target: MurNAc(b1-4)GlcNAc
In short: as §1

Neu5Ac(a2-3)Gal = target: Neu5Ac(a2-3)Gal
In short: as §1

[20] = target: Neu5Ac(a2-3)Gal(b1-3)GalNAc
In short: as §1

[21] = target: Neu5Ac(a2-3)Gal(b1-3)GalNAc(b1-3)Gal(a1-4)Gal(b1-4)Glc
In short: as §1

[22] = target: Neu5Ac(a2-3)Gal(b1-3)GalNAc(b1-4)[Neu5Ac(a2-3)]Gal(b1-4)Glc
In short: as §1

[23] = target: Neu5Ac(a2-3)Gal(b1-3)GalNAc(b1-4)[Neu5Ac(a2-8)Neu5Ac(a2-3)]Gal(b1-4)Glc
In short: as §1

[24] = target: Neu5Ac(a2-3)Gal(b1-3)GalNAc6S
In short: as §1

[25] = target: Neu5Ac(a2-3)Gal(b1-3)GlcNAc
In short: as §1

[26] = target: Neu5Ac(a2-3)Gal(b1-3)GlcNAc(b1-2)Man
In short: as §1

[27] = target: Neu5Ac(a2-3)Gal(b1-3)GlcNAc(b1-2)Man(a1-3)[GlcNAc(b1-4)][Neu5Ac(a2-3)Gal(b1-3)GlcNAc(b1-2)Man(a1-6)]Man(b1-4)GlcNAc(b1-4)GlcNAc
In short: as §1

[28] = target: Neu5Ac(a2-3)Gal(b1-3)GlcNAc(b1-2)Man(a1-3)[Neu5Ac(a2-3)Gal(b1-3)GlcNAc(b1-2)Man(a1-6)]Man(b1-4)GlcNAc(b1-4)GlcNAc
In short: as §1

[29] = target: Neu5Ac(a2-3)Gal(b1-3)GlcNAc(b1-3)Gal(b1-3)GlcNAc
In short: as §1

[30] = target: Neu5Ac(a2-3)Gal(b1-3)GlcNAc(b1-3)Gal(b1-4)GlcNAc
In short: as §1

[31] = target: Neu5Ac(a2-3)Gal(b1-3)GlcNAc(b1-3)GalNAc
In short: as §1

[32] = target: Neu5Ac(a2-3)Gal(b1-3)GlcNAc(b1-4)Gal(b1-4)Glc
In short: as §1

[33] = target: Neu5Ac(a2-3)Gal(b1-3)GlcNAc(b1-6)GalNAc
In short: as §1

B1: AT1G73650(15) (Arabidopsis thaliana), F4HRY1 (protein)
chain: MGTVLDSHFLALTAIVTVIYQFIFFVITALFKFDQVTDFAGSTNFVILAVLTLVLKASWHFRQIVLTLLVVVWGLRLGIFLLMETRILQWGEDRRFDEQRGNIVRLIIFWTLQAVWVWTVSLPLTLVNASDGGGSLKPADVIGWTMETWVFGFLIEAAADQQKLSFKNSPENRGKWCDVGVWKYSRHPNYFGEMETLLWWGIFVAASPVLEGAEYLVIFGPLFLTLLLLFVSGIPLLEASADKKHGNSGAYRSYKKTTSPLILFPRGVYGNLPGWFKTVFLFEFPFYSRNLPQEGRLQNSKEKEVKDD
glycan array binding signal (z-score) [1]: -0.002 | glycan array binding signal (z-score) [2]: -0.502 | glycan array binding signal (z-score) [3]: -0.41 | glycan array binding signal (z-score) [4]: -0.271 | glycan array binding signal (z-score) (GlcNAc(b1-6)GalNAc): -0.154 | glycan array binding signal (z-score) [5]: -0.641 | glycan array binding signal (z-score) (Kdn(a2-3)Gal(b1-3)GalNAc): -0.526 | glycan array binding signal (z-score) (Kdn(a2-3)Gal(b1-3)GlcNAc): 0.749 | glycan array binding signal (z-score) (Kdn(a2-3)Gal(b1-4)Glc): 1.87 | glycan array binding signal (z-score) (Kdn(a2-3)Gal(b1-4)GlcNAc): -0.042 | glycan array binding signal (z-score) [6]: 0.199 | glycan array binding signal (z-score) (Kdn(a2-6)Gal(b1-4)GlcNAc): 0.313 | glycan array binding signal (z-score) [7]: -0.298 | glycan array binding signal (z-score) [8]: -0.361 | glycan array binding signal (z-score) (Man(a1-2)Man(a1-3)Man): -0.334 | glycan array binding signal (z-score) [9]: -0.516 | glycan array binding signal (z-score) [10]: -0.275 | glycan array binding signal (z-score) [11]: -0.226 | glycan array binding signal (z-score) [12]: -0.523 | glycan array binding signal (z-score) [13]: -0.508 | glycan array binding signal (z-score) [14]: -0.132 | glycan array binding signal (z-score) (Man(a1-3)[Man(a1-6)]Man): 0.955 | glycan array binding signal (z-score) [15]: -0.571 | glycan array binding signal (z-score) [16]: 1.28 | glycan array binding signal (z-score) [17]: -0.566 | glycan array binding signal (z-score) [18]: 0.138 | glycan array binding signal (z-score) [19]: -0.199 | glycan array binding signal (z-score) (Man(a1-6)Man): -0.354 | glycan array binding signal (z-score) (Man(b1-4)GlcNAc): -0.703 | glycan array binding signal (z-score) (MurNAc(b1-4)GlcNAc): -0.639 | glycan array binding signal (z-score) (Neu5Ac(a2-3)Gal): -0.693 | glycan array binding signal (z-score) [20]: 0.046 | glycan array binding signal (z-score) [21]: -0.349 | glycan array binding signal (z-score) [22]: -0.634 | glycan array binding signal (z-score) [23]: -0.468 | glycan array binding signal (z-score) [24]: -0.328 | glycan array binding signal (z-score) [25]: -0.508 | glycan array binding signal (z-score) [26]: 1.4 | glycan array binding signal (z-score) [27]: -0.619 | glycan array binding signal (z-score) [28]: -0.37 | glycan array binding signal (z-score) [29]: -0.096 | glycan array binding signal (z-score) [30]: -0.32 | glycan array binding signal (z-score) [31]: -0.661 | glycan array binding signal (z-score) [32]: -0.009 | glycan array binding signal (z-score) [33]: 3.42
